T1: hu IL2R beta-gamma-Fc (P1AD7029-002) (human, UniProt P14784 27-240; P31785 23-262)
T1 construct: Analyte in all SPR runs; also called human IL2R beta-gamma Fc; recombinant human IL2Rbeta-gamma-Fc heterodimer; not shown: Fc part and any linker of the heterodimer
T1 sequence (looked up) 1: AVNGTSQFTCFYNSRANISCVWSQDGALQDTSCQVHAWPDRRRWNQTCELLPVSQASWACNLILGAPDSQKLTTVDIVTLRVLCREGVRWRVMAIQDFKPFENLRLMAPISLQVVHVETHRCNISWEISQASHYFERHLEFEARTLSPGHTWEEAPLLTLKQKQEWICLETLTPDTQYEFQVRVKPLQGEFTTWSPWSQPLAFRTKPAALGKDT
T1 sequence (looked up) 2: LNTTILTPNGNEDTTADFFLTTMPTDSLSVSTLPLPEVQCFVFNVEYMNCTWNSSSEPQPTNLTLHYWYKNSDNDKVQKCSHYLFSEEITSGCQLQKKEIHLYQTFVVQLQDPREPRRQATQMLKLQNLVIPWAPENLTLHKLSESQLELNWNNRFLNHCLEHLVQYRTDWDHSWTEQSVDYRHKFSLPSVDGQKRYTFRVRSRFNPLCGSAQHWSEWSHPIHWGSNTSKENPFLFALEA

B1: FAP 4B9 IgG-huIL2v (IL2qm) (P1AE4798) (other)
light: EIVLTQSPGTLSLSPGERATLSCRASQSVTSSYLAWYQQKPGQAPRLLINVGSRRATGIPDRFSGSGSGTDFTLTISRLEPEDFAVYYCQQGIMLPPTFGQGTKVEIKRTVAAPSVFIFPPSDEQLKSGTASVVCLLNNFYPREAKVQWKVDNALQSGNSQESVTEQDSKDSTYSLSSTLTLSKADYEKHKVYACEVTHQGLSSPVTKSFNRGEC
heavy 1: EVQLLESGGGLVQPGGSLRLSCAASGFTFSSYAMSWVRQAPGKGLEWVSAIIGSGASTYYADSVKGRFTISRDNSKNTLYLQMNSLRAEDTAVYYCAKGWFGGFNYWGQGTLVTVSSASTKGPSVFPLAPSSKSTSGGTAALGCLVKDYFPEPVTVSWNSGALTSGVHTFPAVLQSSGLYSLSSVVTVPSSSLGTQTYICNVNHKPSNTKVDKKVEPKSCDKTHTCPPCPAPEAAGGPSVFLFPPKPKDTLMISRTPEVTCVVVDVSHEDPEVKFNWYVDGVEVHNAKTKPREEQYNSTYRVVSVLTVLHQDWLNGKEYKCKVSNKALGAPIEKTISKAKGQPREPQVCTLPPSRDELTKNQVSLSCAVKGFYPSDIAVEWESNGQPENNYKTTPPVLDSDGSFFLVSKLTVDKSRWQQGNVFSCSVMHEALHNHYTQKSLSLSPGK
heavy 2: EVQLLESGGGLVQPGGSLRLSCAASGFTFSSYAMSWVRQAPGKGLEWVSAIIGSGASTYYADSVKGRFTISRDNSKNTLYLQMNSLRAEDTAVYYCAKGWFGGFNYWGQGTLVTVSSASTKGPSVFPLAPSSKSTSGGTAALGCLVKDYFPEPVTVSWNSGALTSGVHTFPAVLQSSGLYSLSSVVTVPSSSLGTQTYICNVNHKPSNTKVDKKV[human IgG1 Fc with changes not written out]GGGGSGGGGSGGGGSGGGGSGGGGSAPASSSTKKTQLQLEHLLLDLQMILNGINNYKNPKLTRMLTAKFAMPKKATELKHLQCLEEELKPLEEVLNGAQSKNFHLRPRDLISNINVIVLELKGSETTFMCEYADETATIVEFLNRWITFAQSIISTLT
notes: also called FAP 4B9 IgG-huIL2v (G4S)5
B2: FAP 4B9 IgG-huIL2v_D20T_Selectikine (P1AE4799) (other)
light: EIVLTQSPGTLSLSPGERATLSCRASQSVTSSYLAWYQQKPGQAPRLLINVGSRRATGIPDRFSGSGSGTDFTLTISRLEPEDFAVYYCQQGIMLPPTFGQGTKVEIKRTVAAPSVFIFPPSDEQLKSGTASVVCLLNNFYPREAKVQWKVDNALQSGNSQESVTEQDSKDSTYSLSSTLTLSKADYEKHKVYACEVTHQGLSSPVTKSFNRGEC
heavy 1: EVQLLESGGGLVQPGGSLRLSCAASGFTFSSYAMSWVRQAPGKGLEWVSAIIGSGASTYYADSVKGRFTISRDNSKNTLYLQMNSLRAEDTAVYYCAKGWFGGFNYWGQGTLVTVSSASTKGPSVFPLAPSSKSTSGGTAALGCLVKDYFPEPVTVSWNSGALTSGVHTFPAVLQSSGLYSLSSVVTVPSSSLGTQTYICNVNHKPSNTKVDKKVEPKSCDKTHTCPPCPAPEAAGGPSVFLFPPKPKDTLMISRTPEVTCVVVDVSHEDPEVKFNWYVDGVEVHNAKTKPREEQYNSTYRVVSVLTVLHQDWLNGKEYKCKVSNKALGAPIEKTISKAKGQPREPQVCTLPPSRDELTKNQVSLSCAVKGFYPSDIAVEWESNGQPENNYKTTPPVLDSDGSFFLVSKLTVDKSRWQQGNVFSCSVMHEALHNHYTQKSLSLSPGK
heavy 2: EVQLLESGGGLVQPGGSLRLSCAASGFTFSSYAMSWVRQAPGKGLEWVSAIIGSGASTYYADSVKGRFTISRDNSKNTLYLQMNSLRAEDTAVYYCAKGWFGGFNYWGQGTLVTVSSASTKGPSVFPLAPSSKSTSGGTAALGCLVKDYFPEPVTVSWNSGALTSGVHTFPAVLQSSGLYSLSSVVTVPSSSLGTQTYICNVNHKPSNTKVDKKV[human IgG1 Fc with changes not written out]GGGGSGGGGSGGGGSGGGGSGGGGSAPASSSTKKTQLQLEHLLLTLQMILNGINNYKNPKLTRMLTAKFAMPKKATELKHLQCLEEELKPLEEVLNGAQSKNFHLRPRDLISNINVIVLELKGSETTFMCEYADETATIVEFLNRWITFAQSIISTLT
notes: Immunoconjugate: anti-FAP IgG1 PG LALA knob/hole, IL2v variant fused to the C-terminus of the knob heavy chain; also called P1AE4799-003
B3: FAP 4B9 IgG-huIL2v_E95A (P1AE4801) (other)
light: EIVLTQSPGTLSLSPGERATLSCRASQSVTSSYLAWYQQKPGQAPRLLINVGSRRATGIPDRFSGSGSGTDFTLTISRLEPEDFAVYYCQQGIMLPPTFGQGTKVEIKRTVAAPSVFIFPPSDEQLKSGTASVVCLLNNFYPREAKVQWKVDNALQSGNSQESVTEQDSKDSTYSLSSTLTLSKADYEKHKVYACEVTHQGLSSPVTKSFNRGEC
heavy 1: EVQLLESGGGLVQPGGSLRLSCAASGFTFSSYAMSWVRQAPGKGLEWVSAIIGSGASTYYADSVKGRFTISRDNSKNTLYLQMNSLRAEDTAVYYCAKGWFGGFNYWGQGTLVTVSSASTKGPSVFPLAPSSKSTSGGTAALGCLVKDYFPEPVTVSWNSGALTSGVHTFPAVLQSSGLYSLSSVVTVPSSSLGTQTYICNVNHKPSNTKVDKKVEPKSCDKTHTCPPCPAPEAAGGPSVFLFPPKPKDTLMISRTPEVTCVVVDVSHEDPEVKFNWYVDGVEVHNAKTKPREEQYNSTYRVVSVLTVLHQDWLNGKEYKCKVSNKALGAPIEKTISKAKGQPREPQVCTLPPSRDELTKNQVSLSCAVKGFYPSDIAVEWESNGQPENNYKTTPPVLDSDGSFFLVSKLTVDKSRWQQGNVFSCSVMHEALHNHYTQKSLSLSPGK
heavy 2: EVQLLESGGGLVQPGGSLRLSCAASGFTFSSYAMSWVRQAPGKGLEWVSAIIGSGASTYYADSVKGRFTISRDNSKNTLYLQMNSLRAEDTAVYYCAKGWFGGFNYWGQGTLVTVSSASTKGPSVFPLAPSSKSTSGGTAALGCLVKDYFPEPVTVSWNSGALTSGVHTFPAVLQSSGLYSLSSVVTVPSSSLGTQTYICNVNHKPSNTKVDKKV[human IgG1 Fc with changes not written out]GGGGSGGGGSGGGGSGGGGSGGGGSAPASSSTKKTQLQLEHLLLDLQMILNGINNYKNPKLTRMLTAKFAMPKKATELKHLQCLEEELKPLEEVLNGAQSKNFHLRPRDLISNINVIVLALKGSETTFMCEYADETATIVEFLNRWITFAQSIISTLT
notes: Immunoconjugate: anti-FAP IgG1 PG LALA knob/hole, IL2v variant on the knob heavy chain; also called P1AE4801-003
B4: FAP 4B9 IgG-huIL2v_E15V (P1AE4800) (other)
light: EIVLTQSPGTLSLSPGERATLSCRASQSVTSSYLAWYQQKPGQAPRLLINVGSRRATGIPDRFSGSGSGTDFTLTISRLEPEDFAVYYCQQGIMLPPTFGQGTKVEIKRTVAAPSVFIFPPSDEQLKSGTASVVCLLNNFYPREAKVQWKVDNALQSGNSQESVTEQDSKDSTYSLSSTLTLSKADYEKHKVYACEVTHQGLSSPVTKSFNRGEC
heavy 1: EVQLLESGGGLVQPGGSLRLSCAASGFTFSSYAMSWVRQAPGKGLEWVSAIIGSGASTYYADSVKGRFTISRDNSKNTLYLQMNSLRAEDTAVYYCAKGWFGGFNYWGQGTLVTVSSASTKGPSVFPLAPSSKSTSGGTAALGCLVKDYFPEPVTVSWNSGALTSGVHTFPAVLQSSGLYSLSSVVTVPSSSLGTQTYICNVNHKPSNTKVDKKVEPKSCDKTHTCPPCPAPEAAGGPSVFLFPPKPKDTLMISRTPEVTCVVVDVSHEDPEVKFNWYVDGVEVHNAKTKPREEQYNSTYRVVSVLTVLHQDWLNGKEYKCKVSNKALGAPIEKTISKAKGQPREPQVCTLPPSRDELTKNQVSLSCAVKGFYPSDIAVEWESNGQPENNYKTTPPVLDSDGSFFLVSKLTVDKSRWQQGNVFSCSVMHEALHNHYTQKSLSLSPGK
heavy 2: EVQLLESGGGLVQPGGSLRLSCAASGFTFSSYAMSWVRQAPGKGLEWVSAIIGSGASTYYADSVKGRFTISRDNSKNTLYLQMNSLRAEDTAVYYCAKGWFGGFNYWGQGTLVTVSSASTKGPSVFPLAPSSKSTSGGTAALGCLVKDYFPEPVTVSWNSGALTSGVHTFPAVLQSSGLYSLSSVVTVPSSSLGTQTYICNVNHKPSNTKVDKKV[human IgG1 Fc with changes not written out]GGGGSGGGGSGGGGSGGGGSGGGGSAPASSSTKKTQLQLVHLLLDLQMILNGINNYKNPKLTRMLTAKFAMPKKATELKHLQCLEEELKPLEEVLNGAQSKNFHLRPRDLISNINVIVLELKGSETTFMCEYADETATIVEFLNRWITFAQSIISTLT
notes: Immunoconjugate: anti-FAP IgG1 PG LALA knob/hole, IL2v variant on the knob heavy chain; also called P1AE4800-003

In this assay the target is T1, hu IL2R beta-gamma-Fc (P1AD7029-002). As to the kind of experiment: SPR, captured via anti-human Fc, IL2Rbg-Fc analyte, 1:1 Langmuir. The text has this:
Bulk refractive index differences were corrected for by subtracting the response obtained on the reference flow cell 1.
(In SPR one partner is held on a chip, and binding of the other changes the refractive index at the surface.)
The Kd is the equilibrium constant for the complex coming apart. A word on the koff: it is the rate constant with which the complex falls apart. In general, kon refers to the rate constant with which the complex forms. Higher therefore signals faster complex formation. With B1, binding was put at a Kd of 0.04 nM, the koff was found to be 1.07e-06 s⁻¹ and the kon was found to be 41200 M⁻¹ s⁻¹.
For B2, binding was put at a Kd of 30 nM, the off-rate constant (koff) worked out at 0.000816 s⁻¹ and the kon was found to be 27500 M⁻¹ s⁻¹.
Turning to B3, the Kd was 0.09 nM, the koff stood at 2.35e-06 s⁻¹ and the kon worked out at 25400 M⁻¹ s⁻¹.
For B4 the same measures were 0.07 nM, 2.94e-06 s⁻¹ and 39400 M⁻¹ s⁻¹.

The values above are taken from patent publication US20260083855A1 (Hoffmann-La Roche, published 2026).
